Reference: PubChem BioAssay AID1346428 (National Center for Advancing Translational Sciences (NCATS), 2018)
Several values for one entry are separate records, joined by “and”; a condition that tells them apart may be missing. Identical values can stand only once. Among all 48,000 compounds or so, about 1,200 (2.5%) were called active. Roughly 2% stayed inconclusive and do not appear here.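 The calls were made as follows: active = activation of at least 60% and not above a set upper limit (about 1 call in 100 departs from these limits); inconclusive = activation of 40% to 60%, or above that upper limit; inactive = activation under 40%.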 The list shows a part of the results.

What follows are compounds tested against Probable G-protein coupled receptor 32 (Homo sapiens) (UniProt O75388) (assay: qHTS for Agonists of Human Resolvin D1 Receptor DRV1). Conditions: CHO-K1 GPR32 beta-arrestin PathHunter luminescence, 90 min; at 76.9 µM; active compounds read high; zero percent set by DMSO-only wells.
UniProt O75388, sequence (O75388 whole entry, looked up, the tested form may be a part): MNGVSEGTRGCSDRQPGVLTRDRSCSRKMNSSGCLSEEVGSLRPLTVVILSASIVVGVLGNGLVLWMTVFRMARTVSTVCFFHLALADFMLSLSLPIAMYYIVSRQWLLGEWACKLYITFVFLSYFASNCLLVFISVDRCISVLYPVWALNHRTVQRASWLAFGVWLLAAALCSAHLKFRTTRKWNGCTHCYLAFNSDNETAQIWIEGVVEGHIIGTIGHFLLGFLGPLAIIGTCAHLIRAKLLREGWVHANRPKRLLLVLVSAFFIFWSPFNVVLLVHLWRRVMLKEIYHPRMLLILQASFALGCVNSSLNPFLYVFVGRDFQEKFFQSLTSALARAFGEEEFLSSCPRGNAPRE
Method in brief: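 Agonism was scored as beta-arrestin recruitment to ProLink-fused GPR32 in stably transfected CHO-K1 cells, giving a chemiluminescent beta-Gal signal; compounds were incubated 90 min at 37 °C.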
Also: 0% is about no effect.

| Structure (SMILES) | activation |
| --- | --- |
| Cc1ccc(-n2ncc3c(N4CCN(Cc5ccccc5)CC4)ncnc32)cc1 | inactive: 10.3% |
| Cc1cccc(C(=O)Nc2ccc(S(=O)(=O)N3CCCCC3c3cccnc3)cc2)c1 (centres undefined) | inactive: -8.45% |
| COc1ccc(CNC(=O)CS(=O)(=O)c2cccc3nsnc23)cc1 | inactive: -0.398% |
| Cc1cc2c(cc1Cl)N(C(=O)Nc1ccnc3ccccc13)CC2 | inactive: -9.57% |
| CCOc1cc(C2C(C(=O)OC)=C(C)NC3=C2C(=O)c2ccccc23)cc(Br)c1OCC (centres undefined) | inactive: -16.3% |
| Cc1cc(C)c(NC(=O)Cc2ccc(-n3c(C)nc4cccnc43)cc2)c(C)c1 | inactive: -6.48% |
| C=CC[N+]1([C@H]2C[C@H]3[C@@H]4CC[C@H]5C[C@H](OC(C)=O)[C@@H](N6CCCCC6)C[C@]5(C)[C@H]4CC[C@]3(C)[C@H]2OC(=O)CC)CCCCC1 | inactive: -36% |
| O=C(c1ccc([N+](=O)[O-])cc1)N1c2ncnn2C2(CCCCC2)[C@@H]2CCCC[C@@H]21 | inactive: 8.19% |
| COc1ccc(Cl)cc1C(=O)NCc1nc(-c2cccc(C)c2)no1 | inactive: -9.68% |
| CC1=C(C(=O)OC2CCCCCC2)C(c2ccc(Cl)cc2)CC(=O)N1 (centres undefined) | inactive: -11.5% |
| Cc1ccc(OC(=O)CSc2nnc(-c3cccs3)o2)c(C)c1 | inactive: -12.6% |
| CC(=O)Nc1ccc(NC(=O)C2Cc3ccccc3N2C(=O)c2ccccc2)cc1 (centres undefined) | active: 100% |
| COc1ccc(Cn2c(CCC(=O)Nc3ccccc3OC)nc3cccnc32)cc1 | inactive: -5.53% |
| Cc1ccc2nc(-c3ccco3)c(Nc3ccc4c(c3)OCCO4)n2c1 | inactive: -3.83% |
| COc1ccc(CNC(=O)c2ccc(-c3nc(CS(=O)c4ccc(C)cc4)c(C)o3)cc2)cc1 (centres undefined) | active: 69.7% |
| COc1cccc2[nH]c(C(=O)NCc3ccc4c(c3)CCN4C(=O)c3ccc(F)cc3)cc12 | inactive: -44.2% |
| CCc1c(C)nc2nc(-c3ccccc3)nn2c1NCc1ccc(C)cc1 | active: 72.2% |
| O=C(CSc1cn(CCNC(=O)c2c(F)cccc2F)c2ccccc12)Nc1ccccc1F | active: 65.5% |
| O=C1CC2(CCCC2)CC(=O)N1CCCCN1CCN(c2ncccn2)CC1 | inactive: -2.55% and inactive: 12.8% |
| CCCC(=O)NCCc1c2n(c3ccc(OC)cc13)CCCc1ccccc1-2 | inactive: -19.9% |
| Cc1oc2ccc(O)c(CN3CCCC(C)C3)c2c1C(=O)Nc1ccccc1 (centres undefined) | inactive: 2.32% |
| CC(C)OCCCn1c(=O)c2ccccc2n2c(-c3ccccc3F)nnc12 | inactive: 0.202% |
| COc1ccc2c(c1)c(=O)c(C(=O)c1ccc(Cl)cc1)cn2CC(=O)Nc1ccc2c(c1)OCCO2 | inactive: -6.91% |
| CC(C)CCn1c(=O)c2sccc2n2c(CCCC(=O)NCc3ccc(F)cc3)nnc12 | inactive: -12% |
| CCc1ccccc1NC(=O)c1cc(S(=O)(=O)N2CCCc3ccccc32)ccc1F | inactive: -9.03% |
| Cc1c(C(=O)Nc2ccc(F)cc2)sc2nc[nH]c(=O)c12 | inactive: -1.07% |
| CCOc1ccc(N(C)C(CNS(=O)(=O)c2ccccc2)c2ccccc2)cc1 (centres undefined) | inactive: -3.44% |

| Structure (SMILES) | activation |
| --- | --- |
| O=C(COc1ccccc1)Nc1cccc(-c2cn3cccnc3n2)c1 | inactive: 16.9% |
| Cc1cccc(N2CCN(C(=O)CCn3c(=O)c4cccn4c4cccnc43)CC2)c1C | inactive: -7.39% |
| O=C(Cn1c(=O)c2cccn2c2ccc(F)cc21)N1CCN(c2ccc(F)cc2)CC1 | inactive: -15.7% |
| Fc1cccc(-n2ncc3c2ncn2nc(-c4ccccc4Cl)nc32)c1 | inactive: -8.66% |
| CCOc1ccccc1CNC(=O)c1cccn1-c1nnc(N2CCCCC2)s1 | inactive: 5.39% |
| Cc1ccn2c(=O)c(C(=O)NC(C)c3ccccc3)c(O)nc2c1 (centres undefined) | inactive: -10.5% |
| COc1ccc(C2=C(Nc3ccc(C)c(C)c3)c3ccccc3C2=O)cc1 | inactive: -11.5% |
| CCOc1ccc(C(=O)Nc2cc(-c3nc4ccccc4s3)ccc2OC)cc1 | inactive: -5.6% |
| COc1ccccc1N1CCN(C(=O)c2cc(-c3ccccc3O)on2)CC1 | inactive: 12.2% |
| Nc1ccc2cc3ccc(N)cc3nc2c1 | inactive: 32.4% |
| N#Cc1cccc(NC(=O)c2cc3c(s2)-c2ccc(Cl)cc2SC3)c1 | inactive: -15% |
| Cc1nc(-c2ccc(S(=O)(=O)Nc3ccc(C)c(N(C)C)c3)cc2)co1 | inactive: 43.7% |
| COc1ccc(CCNC(=O)c2ccc3c(c2)N(Cc2ccc(F)cc2)CCS3)cc1OC | inactive: -17.3% |
| CCc1nn(CC(=O)NCc2ccccc2Cl)c(=O)c2cccn12 | inactive: -14.9% |
| O=C(COc1ccccc1[N+](=O)[O-])Nc1ccc(-c2nc3ccccc3s2)cc1 | inactive: 4.65% |
| Cc1cc(C)cc(NC(=O)c2cccc3c2C(=O)N(C2CCCCC2)C3)c1 | inactive: 1.23% |
| COc1ccc(S(=O)(=O)c2cc(NS(=O)(=O)c3ccc(Cl)cc3)c(C)c(C)c2O)cc1 | inactive: 23.6% |
| COc1ccc(NC(=O)c2cnc[nH]2)cc1 | inactive: 8.68% |
| Cc1nc(SCC(=O)Nc2ccccc2F)[nH]c(=O)c1Cc1ccccc1 | inactive: -9.47% |
| O=S(=O)(c1ccccc1)c1nc(-c2cccs2)oc1SCc1ccc(F)cc1 | inactive: -17.4% |
| COc1ccccc1-n1c(-c2ccc(C)cc2)cn2c3c(=O)n(C)c(=O)n(C)c3nc12 | inactive: 7.36% |
| CCC(Sc1nc2ccccc2c2nc(-c3ccccc3)nn12)C(=O)Nc1cccc(OC)c1 (centres undefined) | inactive: -11.7% |
| Cc1c(Cl)cccc1NC(=O)CCN1C(=O)c2ccccc2Sc2ncccc21 | inactive: -9.57% |
| Cc1ccc2oc(=O)c3cnn(CC(=O)N4CCN(c5ccccc5)CC4)c3c2c1 | inactive: 7.46% |
| COC(=O)c1c(NC(=O)CS(=O)(=O)c2ccc(C)cc2)sc2c1CCCC2 | inactive: -19.3% |
| CCC(C)NC(=O)CSc1nc2n[nH]c(C)c2c(=N)n1-c1ccc(C)c(Cl)c1 (centres undefined) | inactive: -10.8% |
| CC(C)(C)c1onc(OCP(=O)(O)O)c1CC(N)C(=O)O (centres undefined) | inactive: -1.3% and inactive: 3.96% |
